Measurements from article PMC9911399, “Two distinct binding modes provide the RNA-binding protein RbFox with extraordinary sequence specificity”.
Numbering of substitutions follows the chain as printed; changes in the protein carry UniProt numbers. The list shows a part of the results.

B1: GCUUGAU (DNA:RNA)
RNA: GGGAGACCGGAAUUCAGAUUGUCCGCUUGAUUUAAAUCCCGUCGUAGCCACCA
DNA 1: CAATCTGAATTCCGGTCTCCC
DNA 2: TGGTGGCTACGACGGGATT
B2: GAGACGC (DNA:RNA)
RNA: B1 RNA with C26A, U27G, U28A, G29C, A30G, U31C
DNA 1: CAATCTGAATTCCGGTCTCCC
DNA 2: TGGTGGCTACGACGGGATT
B3: ACUCUAG (DNA:RNA)
RNA: B1 RNA with G25A, U28C, G29U, U31G
DNA 1: CAATCTGAATTCCGGTCTCCC
DNA 2: TGGTGGCTACGACGGGATT
B4: AGAUAAG (DNA:RNA)
RNA: B1 RNA with G25A, C26G, U27A, G29A, U31G
DNA 1: CAATCTGAATTCCGGTCTCCC
DNA 2: TGGTGGCTACGACGGGATT
B5: UCAAUGU (DNA:RNA)
RNA: B1 RNA with G25U, U27A, U28A, G29U, A30G
DNA 1: CAATCTGAATTCCGGTCTCCC
DNA 2: TGGTGGCTACGACGGGATT
B6: AACCUGG (DNA:RNA)
RNA: GGGAGACCGGAAUUCAGAUUGUCCAACCUGGUUAAAUCCCGUCGUAGCCACCA
DNA 1: CAATCTGAATTCCGGTCTCCC
DNA 2: TGGTGGCTACGACGGGATT
B7: UACGCGU (DNA:RNA)
RNA: B6 RNA with A25U, C28G, U29C, G31U
DNA 1: CAATCTGAATTCCGGTCTCCC
DNA 2: TGGTGGCTACGACGGGATT
B8: CGAACCG (DNA:RNA)
RNA: B6 RNA with A25C, A26G, C27A, C28A, U29C, G30C
DNA 1: CAATCTGAATTCCGGTCTCCC
DNA 2: TGGTGGCTACGACGGGATT
B9: ACCCCAA (DNA:RNA)
RNA: B6 RNA with A26C, U29C, G30A, G31A
DNA 1: CAATCTGAATTCCGGTCTCCC
DNA 2: TGGTGGCTACGACGGGATT
B10: UUGCACU (DNA:RNA)
RNA: B6 RNA with A25U, A26U, C27G, U29A, G30C, G31U
DNA 1: CAATCTGAATTCCGGTCTCCC
DNA 2: TGGTGGCTACGACGGGATT
B11: GUAGCCC (DNA:RNA)
RNA: B1 RNA with C26U, U27A, U28G, G29C, A30C, U31C
DNA 1: CAATCTGAATTCCGGTCTCCC
DNA 2: TGGTGGCTACGACGGGATT
B12: CUGCUUG (DNA:RNA)
RNA: B6 RNA with A25C, A26U, C27G, G30U
DNA 1: CAATCTGAATTCCGGTCTCCC
DNA 2: TGGTGGCTACGACGGGATT
B13: UACGUGG (DNA:RNA)
RNA: B6 RNA with A25U, C28G
DNA 1: CAATCTGAATTCCGGTCTCCC
DNA 2: TGGTGGCTACGACGGGATT
B14: ACAUACA (DNA:RNA)
RNA: B1 RNA with G25A, U27A, G29A, A30C, U31A
DNA 1: CAATCTGAATTCCGGTCTCCC
DNA 2: TGGTGGCTACGACGGGATT
B15: UGAGGGU (DNA:RNA)
RNA: B1 RNA with G25U, C26G, U27A, U28G, A30G
DNA 1: CAATCTGAATTCCGGTCTCCC
DNA 2: TGGTGGCTACGACGGGATT
B16: AAGGUGU (DNA:RNA)
RNA: B6 RNA with C27G, C28G, G31U
DNA 1: CAATCTGAATTCCGGTCTCCC
DNA 2: TGGTGGCTACGACGGGATT
B17: GGCCCAU (DNA:RNA)
RNA: B1 RNA with C26G, U27C, U28C, G29C
DNA 1: CAATCTGAATTCCGGTCTCCC
DNA 2: TGGTGGCTACGACGGGATT
B18: AGAGCGA (DNA:RNA)
RNA: B6 RNA with A26G, C27A, C28G, U29C, G31A
DNA 1: CAATCTGAATTCCGGTCTCCC
DNA 2: TGGTGGCTACGACGGGATT
B19: GCUCUUG (DNA:RNA)
RNA: B6 RNA with A25G, A26C, C27U, G30U
DNA 1: CAATCTGAATTCCGGTCTCCC
DNA 2: TGGTGGCTACGACGGGATT
B20: CUUGCUC (DNA:RNA)
RNA: B1 RNA with G25C, C26U, U28G, G29C, A30U, U31C
DNA 1: CAATCTGAATTCCGGTCTCCC
DNA 2: TGGTGGCTACGACGGGATT
B21: AUUAACA (DNA:RNA)
RNA: B6 RNA with A26U, C27U, C28A, U29A, G30C, G31A
DNA 1: CAATCTGAATTCCGGTCTCCC
DNA 2: TGGTGGCTACGACGGGATT
B22: UGUCCAC (DNA:RNA)
RNA: B1 RNA with G25U, C26G, U28C, G29C, U31C
DNA 1: CAATCTGAATTCCGGTCTCCC
DNA 2: TGGTGGCTACGACGGGATT
B23: CUCCACA (DNA:RNA)
RNA: B6 RNA with A25C, A26U, U29A, G30C, G31A
DNA 1: CAATCTGAATTCCGGTCTCCC
DNA 2: TGGTGGCTACGACGGGATT
B24: UUUCGAU (DNA:RNA)
RNA: B1 RNA with G25U, C26U, U28C
DNA 1: CAATCTGAATTCCGGTCTCCC
DNA 2: TGGTGGCTACGACGGGATT
B25: AUGCCGG (DNA:RNA)
RNA: B6 RNA with A26U, C27G, U29C
DNA 1: CAATCTGAATTCCGGTCTCCC
DNA 2: TGGTGGCTACGACGGGATT
B26: AUAAAGC (DNA:RNA)
RNA: B6 RNA with A26U, C27A, C28A, U29A, G31C
DNA 1: CAATCTGAATTCCGGTCTCCC
DNA 2: TGGTGGCTACGACGGGATT
B27: AACUGUC (DNA:RNA)
RNA: B6 RNA with C28U, U29G, G30U, G31C
DNA 1: CAATCTGAATTCCGGTCTCCC
DNA 2: TGGTGGCTACGACGGGATT
B28: GUGUUGC (DNA:RNA)
RNA: B6 RNA with A25G, A26U, C27G, C28U, G31C
DNA 1: CAATCTGAATTCCGGTCTCCC
DNA 2: TGGTGGCTACGACGGGATT
B29: UAUUCGA (DNA:RNA)
RNA: B6 RNA with A25U, C27U, C28U, U29C, G31A
DNA 1: CAATCTGAATTCCGGTCTCCC
DNA 2: TGGTGGCTACGACGGGATT
B30: CAAACUG (DNA:RNA)
RNA: B6 RNA with A25C, C27A, C28A, U29C, G30U
DNA 1: CAATCTGAATTCCGGTCTCCC
DNA 2: TGGTGGCTACGACGGGATT
B31: CGCGUAA (DNA:RNA)
RNA: B6 RNA with A25C, A26G, C28G, G30A, G31A
DNA 1: CAATCTGAATTCCGGTCTCCC
DNA 2: TGGTGGCTACGACGGGATT

The binders below were run against T1, RBFOX1 RRM RbFoxmut (Fox-RRM*) (Homo sapiens, UniProt Q9NWB1 109-208, R118D;E147R;N151S;E152T) (assay: EMSA; HiTS-Eq, 1 nM pool, 10 min; buffer printed only for the single-RNA assays: 10 mM Tris pH 7.5, 150 mM NaCl, 3.4 mM EDTA, 0.001% NP-40, 30 C). Settings: tags: His6 N-terminal (pET28a); label: 5' 32P.
T1 sequence: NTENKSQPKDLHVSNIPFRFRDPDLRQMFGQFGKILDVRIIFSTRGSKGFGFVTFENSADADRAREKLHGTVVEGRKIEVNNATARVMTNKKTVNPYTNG
Procedure, shortened: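 Purified RbFox RRM, wild type or mutant, was incubated for 10 min in 50 µL with 1 nM of a 5′-radiolabelled RNA pool carrying 7 randomized nucleotides, whose flanks were annealed to DNA oligonucleotides, over a series of increasing protein concentrations. Unbound RNA was resolved on 8% native PAGE, cut out, reverse-transcribed, barcoded by PCR and sequenced on an Illumina HiSeq 2500. Relative association constants were derived from changes in read counts for each RNA species versus the control reaction and normalised to the cognate motif.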
B1 was tested, and the binding signal was 0.174 KA relative to UGCAUGU. B2 was tested, and the binding signal was 0.0555 KA relative to UGCAUGU. B3 was tested, and the binding signal was 0.0977 KA relative to UGCAUGU. For B4, the binding signal was 0.153 KA relative to UGCAUGU. For B5, the binding signal was 0.103 KA relative to UGCAUGU. With B6 the binding signal was 0.0806 KA relative to UGCAUGU. In the case of B7, the binding signal is reported as 0.111 KA relative to UGCAUGU. In the case of B8, the binding signal is reported as 0.101 KA relative to UGCAUGU. For B9, the binding signal was 0.0756 KA relative to UGCAUGU. B10 was tested, and the binding signal was 0.084 KA relative to UGCAUGU. With B11 the binding signal was 0.0539 KA relative to UGCAUGU. For B12, the binding signal was 0.423 KA relative to UGCAUGU. With B13 the binding signal was 0.0673 KA relative to UGCAUGU. In the case of B14, the binding signal is reported as 0.111 KA relative to UGCAUGU. B15 was tested, and the binding signal was 0.0738 KA relative to UGCAUGU. In the case of B16, the binding signal is reported as 0.142 KA relative to UGCAUGU. With B17 the binding signal was 0.0646 KA relative to UGCAUGU. B18 was tested, and the binding signal was 0.0748 KA relative to UGCAUGU. In the case of B19, the binding signal is reported as 0.087 KA relative to UGCAUGU. For B20, the binding signal was 0.0577 KA relative to UGCAUGU. B21 was tested, and the binding signal was 0.13 KA relative to UGCAUGU. With B22 the binding signal was 0.0873 KA relative to UGCAUGU. In the case of B23, the binding signal is reported as 0.0889 KA relative to UGCAUGU. In the case of B24, the binding signal is reported as 0.0615 KA relative to UGCAUGU. B25 was tested, and the binding signal was 0.0959 KA relative to UGCAUGU. B26 was tested, and the binding signal was 0.0949 KA relative to UGCAUGU. B27 was tested, and the binding signal was 0.113 KA relative to UGCAUGU. In the case of B28, the binding signal is reported as 0.16 KA relative to UGCAUGU. B29 was tested, and the binding signal was 0.0788 KA relative to UGCAUGU. In the case of B30, the binding signal is reported as 0.059 KA relative to UGCAUGU. With B31 the binding signal was 0.114 KA relative to UGCAUGU.
